{
  "source": "PubChem BioAssay AID1460",
  "about": "(National Center for Advancing Translational Sciences (NCATS), 2008)",
  "note": "The campaign covered roughly 270,000 compounds. About 5,800 (2.1%) were called active. The inconclusive results got no clear call from the source; some entries with a clear call stand among them for comparison. The call rests on the fitted dose curve; in most records, active means well fitted inhibition curve with a large enough effect; inconclusive means small, poorly fitted or top-dose-only effect; inactive means flat fitted curve, though single readings scatter. Where the call is inconclusive, the potency comes from a doubtful curve fit. On the % scale 0 is the no-effect control and ±100 the full control effect; potency means the concentration at half of the fitted maximal effect; tags describe the fitted curve by direction and shape.",
  "data": [
    {"molecular_target": "Microtubule-associated protein tau (Homo sapiens) (UniProt P10636)", "sequence (P10636 whole entry, looked up)": "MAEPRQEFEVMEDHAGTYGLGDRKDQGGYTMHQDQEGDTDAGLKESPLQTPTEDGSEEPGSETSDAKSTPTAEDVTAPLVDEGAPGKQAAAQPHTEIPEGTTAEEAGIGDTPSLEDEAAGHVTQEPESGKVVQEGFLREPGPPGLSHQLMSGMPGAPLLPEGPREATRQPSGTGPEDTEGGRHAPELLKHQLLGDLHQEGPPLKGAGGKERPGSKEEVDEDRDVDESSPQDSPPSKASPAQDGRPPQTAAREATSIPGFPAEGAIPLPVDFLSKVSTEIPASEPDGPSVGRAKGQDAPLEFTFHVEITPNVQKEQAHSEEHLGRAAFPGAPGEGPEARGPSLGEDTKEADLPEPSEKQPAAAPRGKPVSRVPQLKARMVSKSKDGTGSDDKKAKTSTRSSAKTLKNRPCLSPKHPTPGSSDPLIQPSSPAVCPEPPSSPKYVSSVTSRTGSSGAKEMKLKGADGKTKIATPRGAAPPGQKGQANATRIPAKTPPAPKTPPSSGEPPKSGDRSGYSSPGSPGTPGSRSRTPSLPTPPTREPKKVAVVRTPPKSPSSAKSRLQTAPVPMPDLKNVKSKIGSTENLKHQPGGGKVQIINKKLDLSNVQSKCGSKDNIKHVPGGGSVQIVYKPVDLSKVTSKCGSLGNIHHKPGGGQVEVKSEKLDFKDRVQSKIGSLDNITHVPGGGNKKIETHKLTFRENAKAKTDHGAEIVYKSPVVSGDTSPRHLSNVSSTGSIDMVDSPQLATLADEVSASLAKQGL", "experiment": "qHTS for Inhibitors of Tau Fibril Formation, Thioflavin T Binding; further: nearly all actives have a fitted effect of over 55% in size", "details": "recombinant tau K18 P301L, heparin-induced fibrillization, ThT fluorescence; series mostly up to 57.4 µM", "in_short": "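ThT emission at 510 nm, taken 1 hr after adding 30 uM dye, quantifies aggregates formed when 20 uM heparin acts on human tau K18 P301L for 6 hr at 37 C.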", "values": [
      {"smiles": "COc1ccc(S(=O)(=O)NCC(c2ccco2)S(=O)(=O)c2cccs2)cc1C", "note": "(configuration not stated)", "Potency": "inactive"},
      {"smiles": "Cn1c(=O)n(C)c2cc(S(=O)(=O)N3CCOCC3)ccc21", "Potency": "inactive"},
      {"smiles": "O=Cc1ccc(Sc2nnc(-c3ccccc3)o2)c([N+](=O)[O-])c1", "Potency": "active: 17.8 µM"},
      {"smiles": "CCC(=O)N(CC)c1nc(-c2ccc(OC)cc2)cs1", "Potency": "inconclusive: 14.1 µM [inhibitor, partial curve]"},
      {"smiles": "Cc1ccccc1NC(=S)NNC(=O)c1cccc(Br)c1", "Potency": "inconclusive: 17.8 µM [inhibitor, partial curve]"},
      {"smiles": "COc1ccc(/C=N/Nc2cc(C)nc(N3CCOCC3)n2)cc1OC", "Potency": "inconclusive: 14.1 µM [inhibitor, partial curve]"},
      {"smiles": "N/C(=N/OS(=O)(=O)c1ccc([N+](=O)[O-])cc1)c1ccncc1", "Potency": "inconclusive: 22.4 µM [inhibitor, partial curve]"},
      {"smiles": "CC(/C=C1\\SC(=S)N(NC(=O)c2cccc(O)c2)C1=O)=C\\c1ccccc1", "Potency": "active: 7.08 µM"},
      {"smiles": "COC(=O)c1ccc(/C=C2/SC(=S)N(CCCC(=O)Nc3ccccn3)C2=O)cc1", "Potency": "inconclusive: 2.24 µM [inhibitor, full curve]"},
      {"smiles": "Cc1ccc(N/N=C2\\CC(=O)c3ccccc32)cc1Cl", "Potency": "active: 7.08 µM"},
      {"smiles": "Cc1cc(Cl)ccc1OCCCC(=O)N1CCCCC1", "Potency": "inactive"},
      {"smiles": "COc1ccccc1N1CCN(C(=O)/C=C/c2cccc([N+](=O)[O-])c2)CC1", "Potency": "inconclusive: 15.8 µM [inhibitor, partial curve]"},
      {"smiles": "O=C1COc2ccc(C(=O)CSc3nnc(NCc4ccccc4)s3)cc2N1", "Potency": "inconclusive: 12.6 µM [inhibitor, partial curve, poor fit]"},
      {"smiles": "Cc1cc(N2CCC(C(=O)N3CCN(c4cccc(C)c4C)CC3)CC2)n2ncnc2n1", "Potency": "inactive"},
      {"smiles": "O=C(Nc1cccc(NC(=O)c2ccc(-c3cccc(Br)c3)o2)c1)c1ccco1", "Potency": "inconclusive: 1 µM [inhibitor, partial curve]"},
      {"smiles": "Oc1ccc2ccccc2c1CN1CCCC1", "Potency": "inconclusive: 15.8 µM [inhibitor, partial curve]"},
      {"smiles": "CCOC(=O)Nc1cccc(OCC(=O)Nc2ccc(OC)cc2OC)c1", "Potency": "inconclusive: 15.8 µM [inhibitor, partial curve]"},
      {"smiles": "CCc1ccc(NC(=O)Cn2c3[n+](c4c(F)c(F)ccc42)CCCCC3)cc1", "Potency": "inactive"},
      {"smiles": "CN(/N=C/c1cc(Cl)cc(Cl)c1O)C(=S)NC(C)(C)C", "Potency": "inconclusive: 22.4 µM [inhibitor, partial curve]"},
      {"smiles": "COc1ccc(-c2cc(C(=O)Nc3ccc(S(=O)(=O)Nc4onc(C)c4C)cc3)c3ccccc3n2)cc1OC", "Potency": "inconclusive: 15.8 µM [inhibitor, partial curve]"},
      {"smiles": "N=C1S/C(=C\\c2ccc(-c3cccc(Cl)c3)o2)C(=O)N1c1nccs1", "Potency": "active: 3.55 µM"},
      {"smiles": "CCC(=O)n1nc(-c2ccco2)nc1N", "Potency": "inactive"},
      {"smiles": "Cc1ccc2cc(CN(Cc3nnnn3Cc3ccco3)CC3CCCO3)c(=O)[nH]c2c1C", "note": "(configuration not stated)", "Potency": "inconclusive: 31.6 µM [inhibitor, partial curve]"},
      {"smiles": "CCOc1ccc(-c2nnc(N3CCCCC3)c3ccccc23)cc1", "Potency": "inconclusive: 15.8 µM [inhibitor, partial curve]"},
      {"smiles": "CC(=O)Nc1ccc(NC(=O)CSc2nc3ccccc3nc2N2CCC(C)CC2)cc1", "Potency": "inconclusive: 22.4 µM [inhibitor, partial curve, poor fit]"},
      {"smiles": "Nc1ccccc1SCc1csc(-c2ccc(Cl)cc2)n1", "Potency": "inconclusive: 12.6 µM [inhibitor, partial curve]"},
      {"smiles": "COc1ccc(C2CC(c3ccccc3)=NN2C(=O)CN2CCN(Cc3ccccc3)CC2)cc1", "note": "(configuration not stated)", "Potency": "inactive"},
      {"smiles": "CC(C)C(C)(C#N)NC(=O)CSc1nc2scc(-c3ccco3)c2c(=O)n1-c1ccccc1", "note": "(configuration not stated)", "Potency": "active: 10 µM"},
      {"smiles": "O=C(Nc1ccc(Cl)cc1)Nc1nnc(CSCc2ccccc2)s1", "Potency": "inactive"},
      {"smiles": "COc1cc(OC)c(OC)cc1/C=C/c1cc(C(=O)O)c2ccccc2n1", "Potency": "inconclusive: 20 µM [inhibitor, single point]"},
      {"smiles": "C=C(C)C(=O)NNc1ccccc1", "Potency": "inactive"},
      {"smiles": "COc1ccc(CNC(=O)CN2C(=O)CSc3ccc(S(=O)(=O)N4CCOCC4)cc32)c(OC)c1", "Potency": "inactive"},
      {"smiles": "Cc1cccc(C(OC(=O)c2ccco2)C(=O)NCc2ccccc2)n1", "note": "(configuration not stated)", "Potency": "inactive"},
      {"smiles": "CCOC(=O)c1ccc(NC(=O)c2c(NCc3cccs3)sc3c2CCCC3)cc1", "Potency": "inconclusive: 15.8 µM [inhibitor, partial curve]"},
      {"smiles": "COc1ccc(NC(=O)c2ccco2)cc1NC(=O)COc1ccccc1", "Potency": "inconclusive: 5.01 µM [inhibitor, partial curve]"},
      {"smiles": "Cc1ccc(C(=O)Nc2nnc(S(=O)(=O)N3c4ccccc4CC3C)s2)cc1", "note": "(configuration not stated)", "Potency": "inconclusive: 17.8 µM [inhibitor, partial curve, poor fit]"},
      {"smiles": "CCOC(=O)c1cc(OC(=O)c2ccc(C)cc2)n(-c2ccccc2)n1", "Potency": "inconclusive: 10 µM [inhibitor, partial curve]"},
      {"smiles": "CCc1ccc(NC(=S)Nc2cccc3cnccc23)cc1", "Potency": "inconclusive: 22.4 µM [inhibitor, partial curve]"},
      {"smiles": "Cc1ccc(/C=C/C(=O)c2ccccc2O)cc1", "Potency": "inconclusive: 15.8 µM [inhibitor, partial curve]"},
      {"smiles": "COc1ccc(OC(=O)c2nc(SCc3ccc(F)cc3)ncc2Cl)cc1", "Potency": "inconclusive: 8.91 µM [inhibitor, partial curve]"},
      {"smiles": "C=C1CSc2nc(=O)c3c4c(sc3n21)CCC4", "Potency": "inactive"},
      {"smiles": "O=c1c(S(=O)(=O)c2ccccc2)cn(Cc2cccc(F)c2)c2cc(N3CCOCC3)c(F)cc12", "Potency": "inactive"},
      {"smiles": "CN1CCN(c2ccc([N+](=O)[O-])c(-n3nc(-c4ccccc4)c4ccccc4c3=O)c2)CC1", "Potency": "inconclusive: 20 µM [inhibitor, single point]"},
      {"smiles": "Cc1ccc(Cn2nnnc2CN2CCC(O)(c3ccccc3F)CC2)cc1", "Potency": "inactive"},
      {"smiles": "CC(NC(=O)CN(c1ccc(Cl)cc1Cl)S(=O)(=O)c1ccccc1)c1ccccc1", "note": "(configuration not stated)", "Potency": "inactive"},
      {"smiles": "CNC(=O)c1c(NC(=O)/C=C/c2ccccc2Cl)sc2c1CCC2", "Potency": "inconclusive: 2.82 µM [inhibitor, full curve]"},
      {"smiles": "C/C(=N\\NC(=O)c1cc(C)nc2ccccc12)c1ccc([N+](=O)[O-])cc1", "Potency": "inconclusive: 14.1 µM [inhibitor, partial curve]"},
      {"smiles": "COc1ccc(C(C(=O)NC2CCCC2)N2CCc3ccccc32)cc1", "note": "(configuration not stated)", "Potency": "inconclusive: 31.6 µM [inhibitor, single point]"},
      {"smiles": "CCN(CC)c1ccc(/C=N/NC(=O)c2ccco2)cc1", "Potency": "inconclusive: 12.6 µM [inhibitor, partial curve]"},
      {"smiles": "COc1ccc(/C=N/Nc2cc(C)nc(N3CCOCC3)n2)c(OC)c1", "Potency": "inconclusive: 5.62 µM [inhibitor, full curve, poor fit]"},
      {"smiles": "CN1C(=O)/C(=C\\C(=O)c2cccs2)c2ccccc21", "Potency": "inconclusive: 17.8 µM [inhibitor, partial curve]"},
      {"smiles": "Cc1ccccc1Cn1c2ccccc2c2cnn(CC(=O)NCCc3ccccc3)c(=O)c21", "Potency": "inconclusive: 39.8 µM [activator, single point]"},
      {"smiles": "Cc1ccc(NC(=S)NCC2CCCO2)cc1", "note": "(configuration not stated)", "Potency": "inactive"},
      {"smiles": "c1ccc(-c2csc(-c3nc4ccccc4[nH]3)n2)cc1", "Potency": "inconclusive: 39.8 µM [activator, single point]"},
      {"smiles": "Cc1ccc(OCc2n[nH]c(=S)n2Cc2ccccc2)cc1", "Potency": "inactive"},
      {"smiles": "COc1cc(C(C#N)N2CCOCC2)ccc1O", "note": "(configuration not stated)", "Potency": "inactive"},
      {"smiles": "O=[N+]([O-])c1cc(C(F)(F)F)cc([N+](=O)[O-])c1NCCCNc1ccc([N+](=O)[O-])c2cccnc12", "Potency": "inconclusive: 10 µM [inhibitor, partial curve]"},
      {"smiles": "CC12C=C(/C=C/CCc3ccco3)C(C)(C1)[C@H](CCc1ccco1)CC2=O", "note": "(some centres not stated)", "Potency": "inactive"},
      {"smiles": "CCCCN(C)S(=O)(=O)c1ccc(C(=O)N=c2sc3cc(NC(C)=O)ccc3n2C)cc1", "Potency": "inactive"},
      {"smiles": "O=c1[nH]c(=O)c2nc(Br)n(C3OC(CO)C(O)C3O)c2[nH]1", "note": "(configuration not stated)", "Potency": "inactive"},
      {"smiles": "CC(=O)/C=C/n1c(=S)oc2ccccc21", "Potency": "inconclusive: 7.08 µM [inhibitor, partial curve]"},
      {"smiles": "O=c1cc(CO)oc(C(Nc2ccccn2)c2ccc(F)cc2)c1O", "note": "(configuration not stated)", "Potency": "inconclusive: 15.8 µM [inhibitor, partial curve]"},
      {"smiles": "CCOC(=O)c1c(CSC(=N)N)n(C)c2cc(Br)c(OC(C)=O)cc12", "Potency": "inconclusive: 15.8 µM [inhibitor, partial curve]"},
      {"smiles": "CCc1nc(SCC(=O)Nc2nc3c(s2)CCCC3)c2ccccc2n1", "Potency": "inconclusive: 20 µM [inhibitor, partial curve]"},
      {"smiles": "O=c1[nH]c(-[n+]2ccccc2)c(/C=N/NC([S-])=Nc2ccccc2)s1", "Potency": "active: 28.2 µM"},
      {"smiles": "Cc1cccn2c(=O)cc(COc3cccc(NC(=O)COc4ccc(F)cc4)c3)nc12", "Potency": "inactive"},
      {"smiles": "NC(=NCc1ccc(Cl)c(Cl)c1)NC(=O)c1nc(Cl)c(N)nc1N", "Potency": "inactive"},
      {"smiles": "O=C(c1cc2c(s1)-c1ccccc1OC2)N1CCN(c2ccccc2)CC1", "Potency": "inconclusive: 10 µM [inhibitor, partial curve]"},
      {"smiles": "CCCCc1nc2c(c3c1C[C@H](C)OC3)CN(C(=O)NCCc1c[nH]c3ccccc13)CC2", "activity, negative = inhibition": "inactive: 16.1% [at 11.5 µM]"},
      {"smiles": "CCCOc1ccc(C(=O)N(Cc2ccc(N(C)C)cc2)CC2CCCO2)cc1", "note": "(configuration not stated)", "Potency": "inconclusive: 22.4 µM [inhibitor, single point]"},
      {"smiles": "O=C(N=C1c2ccccc2CN1c1ccc(F)c(Cl)c1)c1cccnc1Cl", "Potency": "inconclusive: 12.6 µM [inhibitor, partial curve]"},
      {"smiles": "Cn1ccnc1/C(=N\\NC(=O)c1ccccc1)c1cccc([N+](=O)[O-])c1", "Potency": "inactive"}
    ]}
  ]
}
